Experimental data: US20250368649A1, “TETRAHYDROPYRIDOPYRIMIDINE PAN-KRAS INHIBITORS” (Mirati Therapeutics, Inc., priority 2022, published 2025)

Columns and labels:
KRas G13D = KRas G13D (Homo sapiens, UniProt P01116, G13D); format: binding; settings: single point, 10 nM compound, read-out: Binding to KRas (% inhibition at 10 nM) G13D
KRas Q61H = KRas Q61H (Homo sapiens, UniProt P01116, Q61H); assay: KRas binding assay (TR-FRET displacement), KRas Q61H; settings: single point, 10 nM compound
H460 cells = assay: Inhibition of KRas-mediated phosphorylation of ERK (Cisbio HTRF pERK), H460 cells; format: cell-based; settings: Homo sapiens; for inhibition at 0.1 µM: NCI-H460, single point at 100 nM, 3 hrs compound incubation; for IC50: NCI-H460, 3 h, 3 hr compound incubation, Cisbio pERK HTRF
ASPC1 cells = assay: Inhibition of KRas-mediated phosphorylation of ERK (Cisbio HTRF pERK), ASPC1 cells; format: cell-based; settings: Homo sapiens, AsPC-1 cells; for IC50: ASPC1, 3 h, 3 hr compound incubation, Cisbio pERK HTRF
KRas G12C = KRas G12C (Homo sapiens, UniProt P01116, G12C); format: binding; settings: single point, 10 nM compound, read-out: Binding to KRas (% inhibition at 10 nM) G12C
H727 cells = assay: Inhibition of KRas-mediated phosphorylation of ERK (Cisbio HTRF pERK), H727 cells; format: cell-based; settings: Homo sapiens; for IC50: NCI-H727, 3 h, 3 hr compound incubation, Cisbio pERK HTRF
KRas G12A = KRas G12A (Homo sapiens, UniProt P01116, G12A); format: binding; settings: single point, 10 nM compound, read-out: Binding to KRas (% inhibition at 10 nM) G12A
HCT116 cells = assay: Inhibition of KRas-mediated phosphorylation of ERK (Cisbio HTRF pERK), HCT116 cells; format: cell-based; settings: Homo sapiens; for inhibition at 0.1 µM: HCT-116, single point at 100 nM, 3 hrs compound incubation; for IC50: HCT-116, 3 h, 3 hr compound incubation, Cisbio pERK HTRF
MKN1 cells = assay: Inhibition of KRas-mediated phosphorylation of ERK (Cisbio HTRF pERK), MKN1 cells; format: cell-based; settings: Homo sapiens, MKN-1, 3 hour compound incubation
Protocol: (§1) Inhibition of KRas Phosphorylation of ERK (HTRF) by Exemplary Compounds of Formula (I) Cisbio HTRF Advanced pERK Assay Catalog #64AERPEH • Cells: MKN1, PSN1 • Procedure: • Day 1: Seed 6,000 cells/well -25 µl/well in 384-well white solid bottom plate; RPM1_10% FBS.

KRas WT = KRas WT (Homo sapiens, UniProt P01116); assay: KRas binding assay (TR-FRET displacement), KRas WT; settings: single point, 10 nM compound
H358 cells = assay: Inhibition of KRas-mediated phosphorylation of ERK (Cisbio HTRF pERK), H358 cells; format: cell-based; settings: Homo sapiens; for inhibition at 0.1 µM: NCI-H358, single point at 100 nM, 3 hrs compound incubation; for IC50: NCI-H358, 3 h, 3 hr compound incubation, Cisbio pERK HTRF
PSN1 cells = assay: Inhibition of KRas-mediated phosphorylation of ERK (Cisbio HTRF pERK), PSN1 cells; format: cell-based; settings: Homo sapiens, PSN1, 3 h, 3 hour compound incubation, Cisbio pERK HTRF
Protocol: as §1

KRas G12S = KRas G12S (Homo sapiens, UniProt P01116, G12S); format: binding; settings: single point, 10 nM compound, read-out: Binding to KRas (% inhibition at 10 nM) G12S
A549 cells = assay: Inhibition of KRas-mediated phosphorylation of ERK (Cisbio HTRF pERK), A549 cells; format: cell-based; settings: Homo sapiens; for inhibition at 0.1 µM: single point at 100 nM, 3 hrs compound incubation; for IC50: A549, 3 h, 3 hr compound incubation, Cisbio pERK HTRF

## CCc1c(F)ccc2cc(O)cc(N3CCc4c(nc(OC[C@@]56CCCN5C[C@H](F)C6)nc4N4CCCn5nc(C(N)=O)cc5C4)C3)c12 [Example 308, 5-(7-(8-ethyl-7-fluoro-3-hydroxynaphthalen-1-yl)-2-(((2R,7aS)-2-fluorohexahydro-1H-pyrrolizin-7a-yl)methoxy)-5,6,7,8-tetrahydropyrido[3,4-d]pyrimidin-4-yl)-5,6,7,8-tetrahydro-4H-pyrazolo[1,5-a][1,4]diazepine-2-carboxamide]
KRas G13D
  inhibition at 0.01 µM: 93%
KRas Q61H
  inhibition at 0.01 µM: 94%
H460 cells
  inhibition at 0.1 µM: 41%
ASPC1 cells
  IC50: 13 nM
KRas G12C
  inhibition at 0.01 µM: 98%
H727 cells
  IC50: 13 nM
KRas G12A
  inhibition at 0.01 µM: 95%
HCT116 cells
  inhibition at 0.1 µM: 23%
MKN1 cells
  IC50: 11 nM
KRas WT
  inhibition at 0.01 µM: 94%
H358 cells
  inhibition at 0.1 µM: 93%
PSN1 cells
  IC50: 3480 nM
KRas G12S
  inhibition at 0.01 µM: 98%
A549 cells
  inhibition at 0.1 µM: 62%

## CCc1c(F)ccc2cc(O)cc(N3CCc4c(nc(OC[C@@]56CCCN5C[C@H](F)C6)nc4N4CCCn5nc(N(C)C(=O)N(C)C)cc5C4)C3)c12 [Example 272, 1-(5-(7-(8-ethyl-7-fluoro-3-hydroxynaphthalen-1-yl)-2-(((2R,7aS)-2-fluorohexahydro-1H-pyrrolizin-7a-yl)methoxy)-5,6,7,8-tetrahydropyrido[3,4-d]pyrimidin-4-yl)-5,6,7,8-tetrahydro-4H-pyrazolo[1,5-a][1,4]diazepin-2-yl)-1,3,3-trimethylurea]
H460 cells
  inhibition at 0.1 µM: 22%
ASPC1 cells
  IC50: 528 nM
H727 cells
  IC50: 1930 nM
HCT116 cells
  inhibition at 0.1 µM: 19%
MKN1 cells
  IC50: 510 nM
H358 cells
  inhibition at 0.1 µM: -5%
PSN1 cells
  IC50: > 10000 nM
A549 cells
  inhibition at 0.1 µM: -15%

## CCc1c(F)ccc2cc(O)cc(N3CCc4c(nc(OC[C@@]56CCCN5C[C@H](F)C6)nc4N4CCCn5nc(C(=O)N6CCC7(CCCCN7)C6)cc5C4)C3)c12 (stereo partly drawn) [Example 275, (5-(7-(8-ethyl-7-fluoro-3-hydroxynaphthalen-1-yl)-2(((2R,7as)-2-flurohexahydro-1H-pyrrolizin-7a-yl)methoxy)-5,6,7,8-tetrahydropyrido[3,4-d]pyrimidin-4yl)-5,6,7,8-tetrahydro-4H-pyrazolo[1,5-a][1,4]diazepin-2-yl)(2,6-diazaspiro[4.5]decan-2yl)methanone]
H460 cells
  inhibition at 0.1 µM: 16%
ASPC1 cells
  IC50: 26 nM
H727 cells
  IC50: 115 nM
HCT116 cells
  inhibition at 0.1 µM: -10%
MKN1 cells
  IC50: 91.3 nM
H358 cells
  inhibition at 0.1 µM: 78%
PSN1 cells
  IC50: > 10000 nM
A549 cells
  inhibition at 0.1 µM: 59%

## CCc1c(F)ccc2cc(O)cc(N3CCc4c(nc(OC[C@@]56CCCN5C[C@H](F)C6)nc4N4CCCn5nc(C(=O)N6CCC7CC6CO7)cc5C4)C3)c12 (stereo partly drawn) [Example 337, 6-oxa-2-azabicyclo[3.2.1]octan-2-yl(5-(7-(8-ethyl-7-fluoro-3-hydroxynaphthalen-1-yl)-2-(((2R,7aS)-2-fluorohexahydro-1H-pyrrolizin-7a-yl)methoxy)-5,6,7,8-tetrahydropyrido[3,4-d]pyrimidin-4-yl)-5,6,7,8-tetrahydro-4H-pyrazolo[1,5-a][1,4]diazepin-2-yl)methanone]
KRas G13D
  inhibition at 0.01 µM: 96%
KRas Q61H
  inhibition at 0.01 µM: 98%
H460 cells
  IC50: 22 nM
  inhibition at 0.1 µM: 96%
ASPC1 cells
  IC50: 2 nM
ASPC1 cells; ASPC1, single point at 100 nM, 3 hrs compound incubation
  inhibition at 0.1 µM: 99%
KRas G12C
  inhibition at 0.01 µM: 99%
H727 cells
  IC50: 3 nM
H727 cells; NCI-H727, single point at 100 nM, 3 hrs compound incubation
  inhibition at 0.1 µM: 80%
KRas G12A
  inhibition at 0.01 µM: 97%
HCT116 cells
  IC50: 69 nM
  inhibition at 0.1 µM: 73%
MKN1 cells
  IC50: 2.9 nM
KRas WT
  inhibition at 0.01 µM: 97%
H358 cells
  IC50: 2 nM
  inhibition at 0.1 µM: 106%
PSN1 cells
  IC50: 3900 nM
KRas G12S
  inhibition at 0.01 µM: 99%
A549 cells
  IC50: 14 nM
  inhibition at 0.1 µM: 94%

## CCc1c(F)ccc2cc(O)cc(N3CCc4c(nc(OC[C@@]56CCCN5C[C@H](F)C6)nc4N4CCCn5nc(C(=O)N6C7COCC6C7)cc5C4)C3)c12 [Example 325, 3-oxa-6-azabicyclo[3.1.1]heptan-6-yl(5-(7-(8-ethyl-7-fluoro-3-hydroxynaphthalen-1-yl)-2-(((2R,7aS)-2-fluorohexahydro-1H-pyrrolizin-7a-yl)methoxy)-5,6,7,8-tetrahydropyrido[3,4-d]pyrimidin-4-yl)-5,6,7,8-tetrahydro-4H-pyrazolo[1,5-a][1,4]diazepin-2-yl)methanone]
KRas G13D
  inhibition at 0.01 µM: 96%
KRas Q61H
  inhibition at 0.01 µM: 96%
H460 cells
  IC50: 36 nM
  inhibition at 0.1 µM: 76%
ASPC1 cells
  IC50: 2 nM
KRas G12C
  inhibition at 0.01 µM: 99%
H727 cells
  IC50: 2 nM
KRas G12A
  inhibition at 0.01 µM: 96%
HCT116 cells
  IC50: 71 nM
  inhibition at 0.1 µM: 52%
MKN1 cells
  IC50: 7.8 nM
KRas WT
  inhibition at 0.01 µM: 95%
H358 cells
  IC50: 2 nM
  inhibition at 0.1 µM: 99%
PSN1 cells
  IC50: 2220 nM
KRas G12S
  inhibition at 0.01 µM: 99%
A549 cells
  IC50: 17 nM
  inhibition at 0.1 µM: 88%

## CCc1c(F)ccc2cc(O)cc(N3CCc4c(nc(OC[C@@]56CCCN5C[C@H](F)C6)nc4N4CCCn5nc(C(=O)N6CCOCC6)c(Cl)c5C4)C3)c12 [Example 413, (3-chloro-5-(7-(8-ethyl-7-fluoro-3-hydroxynaphthalen-1-yl)-2-(((2R,7aS)-2-fluorohexahydro-1H-pyrrolizin-7a-yl)methoxy)-5,6,7,8-tetrahydropyrido[3,4-d]pyrimidin-4-yl)-5,6,7,8-tetrahydro-4H-pyrazolo[1,5-a][1,4]diazepin-2-yl)(morpholino)methanone]
KRas G13D
  inhibition at 0.01 µM: 99%
KRas Q61H
  inhibition at 0.01 µM: 100%
H460 cells
  IC50: 5 nM
ASPC1 cells
  IC50: 1 nM
KRas G12C
  inhibition at 0.01 µM: 100%
H727 cells
  IC50: 3 nM
KRas G12A
  inhibition at 0.01 µM: 98%
HCT116 cells
  IC50: 23 nM
MKN1 cells
  IC50: 0.4 nM
KRas WT
  inhibition at 0.01 µM: 99%
H358 cells
  IC50: 1 nM
PSN1 cells
  IC50: 2180 nM
KRas G12S
  inhibition at 0.01 µM: 99%
A549 cells
  IC50: 4 nM

## CCc1c(F)ccc2cc(O)cc(N3CCc4c(nc(OC[C@@]56CCCN5C[C@H](F)C6)nc4N4CCCn5nc(C(=O)N6CC7CNCC7C6)cc5C4)C3)c12 (stereo partly drawn) [Example 273, (5-(7-(8-ethyl-7-fluoro-3-hydroxynaphthalen-1-yl)-2-(((2R,7aS)-2-fluorohexahydro-1H-pyrrolizin-7a-yl)methoxy)-5,6,7,8-tetrahydropyrido[3,4-d]pyrimidin-4-yl)-5,6,7,8-tetrahydro-4H-pyrazolo[1,5-a][1,4]diazepin-2-yl)(hexahydropyrrolo[3,4-c]pyrrol-2(1H)-yl)methanone]
H460 cells
  inhibition at 0.1 µM: 5%
ASPC1 cells
  IC50: 202 nM
H727 cells
  IC50: 239 nM
HCT116 cells
  inhibition at 0.1 µM: 10%
MKN1 cells
  IC50: 218 nM
H358 cells
  inhibition at 0.1 µM: 6%
PSN1 cells
  IC50: > 10000 nM
A549 cells
  inhibition at 0.1 µM: 22%

## CCc1c(F)ccc2cc(O)cc(N3CCc4c(nc(OC[C@@]56CCCN5C[C@H](F)C6)nc4N4CCCn5nc(C(=O)N6CC7CCC(C6)N7C)cc5C4)C3)c12 [Example 270]
H460 cells
  inhibition at 0.1 µM: 34%
ASPC1 cells
  IC50: 20 nM
H727 cells
  IC50: 106 nM
HCT116 cells
  inhibition at 0.1 µM: 36%
MKN1 cells
  IC50: 13.8 nM
H358 cells
  inhibition at 0.1 µM: 94%
PSN1 cells
  IC50: > 10000 nM
A549 cells
  inhibition at 0.1 µM: 52%

## CCc1c(F)ccc2cc(O)cc(N3CCc4c(nc(OC[C@@]56CCCN5C[C@H](F)C6)nc4N4CCCn5nc(C(=O)N6CCC7(CCCN7)C6)cc5C4)C3)c12 (stereo partly drawn) [Example 276, (5-(7-(8-ethyl-7-fluoro-3-hydroxynaphthalen-1-yl)-2-(((2R,7aS)-2-fluorohexahydro-1H-pyrrolizin-7a-yl)methoxy)-5,6,7,8-tetrahydropyrido[3,4-d]pyrimidin-4-yl)-5,6,7,8-tetrahydro-4H-pyrazolo[1,5-a][1,4]diazepin-2-yl)(1,7-diazaspiro[4.4]nonan-7-yl)methanone]
H460 cells
  inhibition at 0.1 µM: -17%
ASPC1 cells
  IC50: 37 nM
H727 cells
  IC50: 297 nM
HCT116 cells
  inhibition at 0.1 µM: -1%
MKN1 cells
  IC50: 144 nM
H358 cells
  inhibition at 0.1 µM: 42%
PSN1 cells
  IC50: > 10000 nM
A549 cells
  inhibition at 0.1 µM: 16%
